Source: paper PMC5636987
These are yes or no findings as the source states them, for the method shown. Binding seen in cells or lysates may run through a third protein. Some results given as binding are weak or reduced against the parent protein; the word gives no strength. For part of these data: Tags and fused reporters may be left off the sequences shown. Blank lines part the entries; values can stand above or below the binder they belong to.

Legend:
[1] = molecular target: T1, Flag-TAB1 (human (from the RefSeq entry)) (UniProt Q15750); experiment: co-IP; Flag-TAK1 or TAB1 immunoprecipitates probed for GST-POPX2 (Supplementary Figure S1b)
T1 sequence: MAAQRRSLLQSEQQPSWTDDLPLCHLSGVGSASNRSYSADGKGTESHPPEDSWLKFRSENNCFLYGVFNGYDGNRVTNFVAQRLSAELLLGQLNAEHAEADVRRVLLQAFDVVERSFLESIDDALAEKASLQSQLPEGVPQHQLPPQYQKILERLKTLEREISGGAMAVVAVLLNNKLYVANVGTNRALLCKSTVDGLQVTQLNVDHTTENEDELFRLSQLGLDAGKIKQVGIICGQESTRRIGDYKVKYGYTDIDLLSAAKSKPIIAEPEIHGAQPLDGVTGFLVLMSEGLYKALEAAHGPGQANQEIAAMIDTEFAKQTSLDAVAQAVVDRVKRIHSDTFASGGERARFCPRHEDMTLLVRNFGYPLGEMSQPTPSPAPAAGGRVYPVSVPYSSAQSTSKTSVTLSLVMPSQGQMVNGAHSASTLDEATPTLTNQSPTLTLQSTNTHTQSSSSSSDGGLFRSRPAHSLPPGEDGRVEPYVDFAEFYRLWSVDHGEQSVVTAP

[2] = molecular target: T2, Flag-TAK1 (human (from the RefSeq entry)) (UniProt O43318); experiment: as above
T2 sequence: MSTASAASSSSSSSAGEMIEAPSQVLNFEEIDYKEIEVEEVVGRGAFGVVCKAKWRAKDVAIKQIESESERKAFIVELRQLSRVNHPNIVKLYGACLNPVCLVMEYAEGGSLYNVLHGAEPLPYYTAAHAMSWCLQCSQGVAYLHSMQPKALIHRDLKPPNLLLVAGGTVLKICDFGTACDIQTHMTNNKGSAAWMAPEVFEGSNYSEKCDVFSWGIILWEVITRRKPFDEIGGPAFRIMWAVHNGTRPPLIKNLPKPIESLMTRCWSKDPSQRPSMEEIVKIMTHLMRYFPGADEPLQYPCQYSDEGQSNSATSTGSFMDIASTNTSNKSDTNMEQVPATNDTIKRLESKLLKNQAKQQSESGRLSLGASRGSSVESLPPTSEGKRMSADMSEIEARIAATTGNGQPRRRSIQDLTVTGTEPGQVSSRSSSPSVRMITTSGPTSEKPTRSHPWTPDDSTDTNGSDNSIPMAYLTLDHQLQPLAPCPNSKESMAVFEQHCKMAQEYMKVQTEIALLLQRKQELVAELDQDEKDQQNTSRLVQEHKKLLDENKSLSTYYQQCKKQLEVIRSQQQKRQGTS

[3] = molecular target: T3, GST-TAB1 (bacterially expressed) (human (from the RefSeq entry)) (UniProt Q15750); experiment: pull-down; bacterially expressed His-POPX2 or His-POPX2m incubated with GST fusion proteins bound to glutathione beads; stringent wash (three times) with 25 mM Tris pH 7.4, 300 mM NaCl, 1% Triton X-100, 1 mM EDTA; Western blot; purification of the His proteins not told
T3 sequence: T1 sequence

[4] = molecular target: T4, GST-TAK1 (bacterially expressed) (human (from the RefSeq entry)) (UniProt O43318); experiment: as above
T4 sequence: T2 sequence

[5] = molecular target: T5, POPX2 (endogenous) (human (endogenous in U-2OS)) (UniProt P49593); experiment: co-IP; endogenous POPX2 isolated with anti-POPX2 mouse monoclonal antibody from U-2OS cells; co-precipitated proteins detected by Western blot; mouse random IgG as control
T5 sequence: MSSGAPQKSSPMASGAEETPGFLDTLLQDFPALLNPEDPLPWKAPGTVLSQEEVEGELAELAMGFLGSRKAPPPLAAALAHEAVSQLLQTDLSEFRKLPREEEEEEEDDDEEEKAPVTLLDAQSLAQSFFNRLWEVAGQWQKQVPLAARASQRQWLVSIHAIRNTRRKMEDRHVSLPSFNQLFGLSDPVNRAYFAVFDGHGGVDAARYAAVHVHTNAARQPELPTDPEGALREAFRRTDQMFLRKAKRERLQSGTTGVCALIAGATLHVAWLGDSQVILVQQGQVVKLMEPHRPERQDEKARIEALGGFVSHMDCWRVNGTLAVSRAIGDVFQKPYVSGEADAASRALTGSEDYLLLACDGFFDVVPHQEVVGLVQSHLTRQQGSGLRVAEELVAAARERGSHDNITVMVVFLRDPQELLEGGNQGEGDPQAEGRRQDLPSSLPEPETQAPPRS

GST-POPX1 = molecular target: T6, GST-POPX1 (UniProt Q8WY54); experiment: pull-down; GST-tagged and Flag- or HA-tagged proteins co-expressed in COS-7 cells; lysates (20 mM Tris pH 7.4, 150 mM NaCl, 0.5% Triton X-100) incubated with glutathione sepharose beads at 4 °C; washed three times with 250 mM NaCl, 0.5% Triton X-100; Western blot
T6 sequence: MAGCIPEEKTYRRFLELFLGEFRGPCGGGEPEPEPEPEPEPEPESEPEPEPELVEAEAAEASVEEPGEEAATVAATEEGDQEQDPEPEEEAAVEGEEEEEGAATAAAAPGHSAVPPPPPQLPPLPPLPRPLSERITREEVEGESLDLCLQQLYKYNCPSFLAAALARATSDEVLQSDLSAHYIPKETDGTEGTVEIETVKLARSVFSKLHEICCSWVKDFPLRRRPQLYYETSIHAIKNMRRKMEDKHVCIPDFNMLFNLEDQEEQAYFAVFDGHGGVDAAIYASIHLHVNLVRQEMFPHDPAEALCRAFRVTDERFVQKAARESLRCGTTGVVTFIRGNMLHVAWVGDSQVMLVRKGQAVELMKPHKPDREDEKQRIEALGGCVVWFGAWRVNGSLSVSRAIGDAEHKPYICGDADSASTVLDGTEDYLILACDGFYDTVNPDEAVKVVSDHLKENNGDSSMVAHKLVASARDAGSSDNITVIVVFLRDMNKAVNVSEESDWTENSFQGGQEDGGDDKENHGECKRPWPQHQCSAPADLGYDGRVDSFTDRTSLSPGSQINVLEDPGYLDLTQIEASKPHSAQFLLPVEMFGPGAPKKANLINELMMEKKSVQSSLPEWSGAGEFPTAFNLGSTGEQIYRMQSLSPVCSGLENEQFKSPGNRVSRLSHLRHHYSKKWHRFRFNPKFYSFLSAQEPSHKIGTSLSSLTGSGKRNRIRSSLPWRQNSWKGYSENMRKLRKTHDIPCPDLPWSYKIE

GST-POPX2 = molecular target: T7, GST-POPX2 (UniProt P49593); experiment: as above
T7 sequence: T5 sequence

[6] = molecular target: T8, GST-tagged full length PP2Cβ (human) (UniProt O75688); experiment: as above
T8 sequence: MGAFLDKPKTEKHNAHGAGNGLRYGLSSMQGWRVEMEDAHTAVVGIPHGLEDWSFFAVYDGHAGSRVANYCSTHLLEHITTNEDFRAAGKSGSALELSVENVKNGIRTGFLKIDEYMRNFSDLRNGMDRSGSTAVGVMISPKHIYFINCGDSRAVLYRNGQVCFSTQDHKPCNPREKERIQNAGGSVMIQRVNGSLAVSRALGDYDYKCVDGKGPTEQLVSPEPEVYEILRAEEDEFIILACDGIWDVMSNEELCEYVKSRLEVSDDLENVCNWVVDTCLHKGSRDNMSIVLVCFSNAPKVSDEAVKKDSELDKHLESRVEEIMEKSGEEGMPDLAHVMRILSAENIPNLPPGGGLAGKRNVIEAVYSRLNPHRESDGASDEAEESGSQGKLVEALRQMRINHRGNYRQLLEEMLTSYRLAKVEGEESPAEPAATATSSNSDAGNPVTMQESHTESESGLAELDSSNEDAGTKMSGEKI

GST-PP2Cα = molecular target: T9, GST-PP2Cα (UniProt P35813); experiment: as above
T9 sequence: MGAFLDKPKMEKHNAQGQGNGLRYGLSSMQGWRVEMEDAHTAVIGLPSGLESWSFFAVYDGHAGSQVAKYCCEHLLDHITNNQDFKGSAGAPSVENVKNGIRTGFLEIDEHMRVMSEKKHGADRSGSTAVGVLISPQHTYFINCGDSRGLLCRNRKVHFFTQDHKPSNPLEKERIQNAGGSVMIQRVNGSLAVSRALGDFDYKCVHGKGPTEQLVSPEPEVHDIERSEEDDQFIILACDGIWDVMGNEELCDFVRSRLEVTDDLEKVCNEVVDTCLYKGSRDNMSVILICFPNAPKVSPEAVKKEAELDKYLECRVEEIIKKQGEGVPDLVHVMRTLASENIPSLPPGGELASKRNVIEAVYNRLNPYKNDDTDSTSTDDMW

B2: His-POPX2 (enzyme, UniProt P49593 1-454)
chain: T5 sequence
binding [3]: no binding
binding [4]: binds

B3: TAK1 (endogenous) (enzyme, UniProt O43318 1-606)
chain: MSTASAASSSSSSSAGEMIEAPSQVLNFEEIDYKEIEVEEVVGRGAFGVVCKAKWRAKDVAIKQIESESERKAFIVELRQLSRVNHPNIVKLYGACLNPVCLVMEYAEGGSLYNVLHGAEPLPYYTAAHAMSWCLQCSQGVAYLHSMQPKALIHRDLKPPNLLLVAGGTVLKICDFGTACDIQTHMTNNKGSAAWMAPEVFEGSNYSEKCDVFSWGIILWEVITRRKPFDEIGGPAFRIMWAVHNGTRPPLIKNLPKPIESLMTRCWSKDPSQRPSMEEIVKIMTHLMRYFPGADEPLQYPCQYSDEGQSNSATSTGSFMDIASTNTSNKSDTNMEQVPATNDTIKRLESKLLKNQAKQQSESGRLSLGASRGSSVESLPPTSEGKRMSADMSEIEARIAATTAYSKPKRGHRKTASFGNILDVPEIVISGNGQPRRRSIQDLTVTGTEPGQVSSRSSSPSVRMITTSGPTSEKPTRSHPWTPDDSTDTNGSDNSIPMAYLTLDHQLQPLAPCPNSKESMAVFEQHCKMAQEYMKVQTEIALLLQRKQELVAELDQDEKDQQNTSRLVQEHKKLLDENKSLSTYYQQCKKQLEVIRSQQQKRQGTS
binding [5]: binds

Second part, the binder after the results:

binding [1]: no binding
binding [2]: binds
B1: GST-POPX2 (enzyme, UniProt P49593 1-454)
chain: T5 sequence

binding (GST-POPX1): binds
binding (GST-POPX2): binds
binding [6]: binds
binding (GST-PP2Cα): binds
B4: Flag-TAK1 (enzyme, UniProt O43318-2 1-579)
chain: T2 sequence
